{
  "source": "PubChem BioAssay AID1508623",
  "about": "(National Center for Advancing Translational Sciences (NCATS), 2021)",
  "note": "About 450 (0.94%) of roughly 48,000 compounds were called active. Inconclusive results (about 19%) are left out. Calls follow the shape of the dose curve; as a rule, active = well fitted inhibition curve with a large enough effect; inconclusive = small, poorly fitted or top-dose-only effect; inactive = no such curve, though single readings can be large or run the other way. This is one part of the list.",
  "data": [
    {"experiment": "Primary qHTS for Identification of Small Molecule Inhibitors of Huntingtin Promoter Activity; also: nearly all actives have a fitted effect of over 50% in size", "conditions": "HEK293 HTT promoter firefly luciferase reporter (activity 0% = vehicle and -100% = no light), 24 h; series mostly up to 57.5 µM; activity change, negative = inhibition: at the top concentration", "in_short": "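Luminescence was read after Dual-Glo reagent and a 10 min room-temperature incubation. Values were normalized to vehicle (0% activity) and zero RLU (-100% activity). Reporter HEK293 cells had been exposed to compounds (up to 57.5 uM final) for 24 h.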", "values": [
      {"compound": "COc1ccc([C@@H]2Sc3ccccc3NC(=O)[C@@H]2O)cc1", "activity change, negative = inhibition": "inactive: -22%"},
      {"compound": "CC(=O)C1=C(c2ccc(F)cc2)N(C(C)=O)n2c(nnc2C2CCCCC2)S1", "activity change, negative = inhibition": "inactive: -11.9%"},
      {"compound": "COC(=O)[C@H]1[C@H]2C[C@@H]3c4[nH]c5cc(OC)ccc5c4CCN3C[C@H]2C[C@@H](OC(=O)COc2ccc(OC)cc2)[C@@H]1OC", "activity change, negative = inhibition": "inactive: -6.77%"},
      {"compound": "CCOc1ccc(C(=O)NCC(c2ccc(Cl)cc2)N2CCCCC2)cc1", "note": "(stereo not drawn)", "activity change, negative = inhibition": "inactive: 8.39%"},
      {"compound": "CCCCNc1ccc(-c2nc(-c3ccccn3)no2)cc1[N+](=O)[O-]", "activity change, negative = inhibition": "inactive: 27%"},
      {"compound": "COc1ccc(-c2nnn3c2nc(NCc2ccc(C)cc2)c2ccccc23)cc1", "activity change, negative = inhibition": "inactive: -8.22%"},
      {"compound": "Cc1cc(C)c(NC(=O)C(C)n2c(=O)cc(-c3ccccc3)c3c(C)nn(C)c32)c(C)c1", "note": "(stereo not drawn)", "activity change, negative = inhibition": "inactive: -0.304%"},
      {"compound": "CCCNC(=O)CSc1c(CCC)cnc2c1c(=O)n(C)c(=O)n2C", "activity change, negative = inhibition": "inactive: -5.71%"},
      {"compound": "CC(C)COCC(CN(Cc1ccccc1)c1ccccc1)N1CCCC1", "note": "(stereo not drawn)", "activity change, negative = inhibition": "inactive: -33.5%"},
      {"compound": "O=C(CN1C(=O)C2(SCC(=O)N2c2cccc(F)c2)c2ccccc21)NCCc1ccccc1", "note": "(stereo not drawn)", "activity change, negative = inhibition": "inactive: -9.9%"},
      {"compound": "O=C(CCOCCOCCOCCOCCC(=O)Nc1c(I)cc(I)c(C(=O)O)c1I)Nc1c(I)cc(I)c(C(=O)O)c1I", "activity change, negative = inhibition": "inactive: 2.83%"},
      {"compound": "O=C(NCCc1csc(-c2cccnc2)n1)c1ccccc1", "activity change, negative = inhibition": "inactive: 12.3%"},
      {"compound": "CCOC(=O)c1cnc(N2CCN(c3cccc(C)c3C)CC2)c2ccccc12", "activity change, negative = inhibition": "inactive: -3.89%"},
      {"compound": "Cc1ccccc1C(=O)OCc1cc(=O)n2nc(C3CCCCC3)sc2n1", "activity change, negative = inhibition": "inactive: -9.24%"},
      {"compound": "CCOC(=O)c1cc(-c2ccc(OC)c(S(=O)(=O)NCc3ccccc3Cl)c2)on1", "activity change, negative = inhibition": "inactive: -9.27%"},
      {"compound": "CC1CCCCN1CCCNC(=O)CN1C(=O)CSc2ccc(S(=O)(=O)N3CCOCC3)cc21", "note": "(stereo not drawn)", "activity change, negative = inhibition": "inactive: -12.3%"},
      {"compound": "COc1ccc(OC)c(NC(=O)Cn2ccn(-c3ccc(OC)c(OC)c3)c(=O)c2=O)c1", "activity change, negative = inhibition": "inactive: -18.4%"},
      {"compound": "CCc1ccc(NC(=O)Nc2ccccc2OCc2cc(=O)n3ccccc3n2)cc1", "activity change, negative = inhibition": "inactive: 52.5%"},
      {"compound": "Cc1ccc(Nc2c(-c3ccc(C)s3)nc3ccccn23)cc1", "activity change, negative = inhibition": "inactive: 38.1%"},
      {"compound": "COC(=O)c1cccc(NC2=NS(=O)(=O)c3ccccc32)c1", "activity change, negative = inhibition": "inactive: -13.1%"},
      {"compound": "Cc1cc(Cl)ccc1NC(=O)Cc1ccc(NC(=O)N2CCCCc3ccccc32)cc1", "activity change, negative = inhibition": "inactive: -7.97%"},
      {"compound": "CCCCCC1Nc2cc(C(F)(F)F)c(S(N)(=O)=O)cc2S(=O)(=O)N1", "note": "(stereo not drawn)", "activity change, negative = inhibition": "inactive: -3.95%"},
      {"compound": "COc1ccc(C)cc1NC(=O)C1CCN(S(=O)(=O)c2cc(Br)cc3c2N(C(C)=O)CC3)CC1", "activity change, negative = inhibition": "inactive: -6.76%"},
      {"compound": "CCOc1ccccc1NC(=O)N(Cc1ccc(C)o1)C1CCN(C(C)=O)CC1", "activity change, negative = inhibition": "inactive: -18.6%"},
      {"compound": "Cc1ccc(-c2cc3ncc4c(n3n2)-c2cc(F)ccc2OC4)cc1", "activity change, negative = inhibition": "inactive: 1.26%"},
      {"compound": "CCOC(=O)CNC(=O)N1CCCN(S(=O)(=O)c2ccc3c(ccn3CC)c2)CC1", "activity change, negative = inhibition": "inactive: -22.5%"},
      {"compound": "O=C(CSc1nnc(-c2ccc(Cl)cc2)o1)c1ccc([N+](=O)[O-])cc1", "activity change, negative = inhibition": "inactive: -19.8%"},
      {"compound": "CCc1ccc(C(=O)c2cn(CC(=O)Nc3cccc(OC)c3)c3cc4c(cc3c2=O)OCO4)cc1", "activity change, negative = inhibition": "inactive: -20.2%"},
      {"compound": "CCn1c(SCc2c(F)cccc2Cl)nc(=O)c2c(C(=O)OC)cc(C3CC3)nc21", "activity change, negative = inhibition": "inactive: 2.37%"},
      {"compound": "O=C(c1ccccc1Br)N(Cc1ccco1)Cc1ccco1", "activity change, negative = inhibition": "inactive: -27.8%"},
      {"compound": "O=c1c(=O)n(-c2ccc(F)c(F)c2)ccn1Cc1ccc(F)cc1Cl", "activity change, negative = inhibition": "inactive: -21.7%"},
      {"compound": "CCOC(=O)C1=C(CS(=O)(=O)c2ccc(F)c(C)c2)NC(=O)NC1c1ccccc1OC", "note": "(stereo not drawn)", "activity change, negative = inhibition": "inactive: -15.1%"},
      {"compound": "CCCc1nnc(NC(=O)c2nc(SCC)ncc2Cl)s1", "activity change, negative = inhibition": "inactive: -2.48%"},
      {"compound": "CCc1nn(CC(=O)N2CCCCC2)c(=O)c2cc3occc3n12", "activity change, negative = inhibition": "inactive: -8.33%"},
      {"compound": "CN(C)/N=N/c1nc[nH]c1C(N)=O", "activity change, negative = inhibition": "inactive: 1.98%"},
      {"compound": "CCOc1ccc(NC(=O)N2CCN(c3nnc(C)c4c(C)n(-c5ccccc5)nc34)CC2)cc1", "activity change, negative = inhibition": "inactive: -2.19%"},
      {"compound": "CCCCn1c(=O)n(-c2cc(OC)ccc2OC)c(=O)c2c3c(sc21)CN(C(C)=O)CC3", "activity change, negative = inhibition": "inactive: 12.5%"},
      {"compound": "COc1ccc(-n2nc(C(=O)Nc3cc(C)ccn3)c3c4ccccc4n(C)c3c2=O)cc1", "activity change, negative = inhibition": "inactive: -7.7%"},
      {"compound": "O=C(CC1N=C2c3ccccc3N=C(SCc3ccccc3Cl)N2C1=O)NCCc1ccccc1", "note": "(stereo not drawn)", "activity change, negative = inhibition": "inactive: -31%"},
      {"compound": "CCOc1ccc(-n2nc3ccc(NC(=O)c4ccc(OC)c(Cl)c4)cc3n2)cc1", "activity change, negative = inhibition": "inactive: -14.6%"},
      {"compound": "Cc1ccc2c(=O)cc(C(=O)Nc3sc4c(c3C(=O)NCC3CCCO3)CCC4)oc2c1", "note": "(stereo not drawn)", "activity change, negative = inhibition": "inactive: -13.6% [at 11.5 µM]"},
      {"compound": "Cc1oc(-c2ccccc2Cl)nc1CS(=O)(=O)CC(=O)NCc1ccc(F)cc1", "activity change, negative = inhibition": "inactive: -30%"},
      {"compound": "CCC(C(=O)NCc1ccccc1OC)n1nc(C)n2c(cc3occc32)c1=O", "note": "(stereo not drawn)", "activity change, negative = inhibition": "inactive: -15.2%"},
      {"compound": "COc1ccc(C(=O)Nc2ccc(N(C)Cc3ccccc3)c(C(=O)O)c2)cc1", "activity change, negative = inhibition": "inactive: -12%"},
      {"compound": "CCOC(=O)Cn1c(=O)n(CC2CCCO2)c2nc(-c3ccccc3)nc(C(N)=O)c21", "note": "(stereo not drawn)", "activity change, negative = inhibition": "inactive: 1.77%"},
      {"compound": "Cc1cc(C)cc(NC(=O)N2CCC(CN3CCOCC3)CC2)c1", "activity change, negative = inhibition": "inactive: -5.17%"},
      {"compound": "O=C(Nc1ccc(C(=O)O)c(O)c1)c1ccccc1", "activity change, negative = inhibition": "inactive: 4.12%"},
      {"compound": "CC(C)NC(=O)N1[C@H](c2cccs2)[C@@H](C)C(=O)[C@@H](C)[C@@H]1c1cccs1", "activity change, negative = inhibition": "inactive: -17.2%"}
    ]}
  ]
}
